Assay results reported in US20150017162A1 (OMEROS, published 2015).

B1: SGMI-1Fc (Fc fusion)
chain: LEVTCEPGTTFKDKCNTCRCGSDGKSAFCTRKLCYQGTGGGSGSSSRS[not shown - human IgG1 Fc]
B2: SGMI-2Fc (Fc fusion)
chain: B1 chain with F28V, R31K, K32L, L33W, Y35N

How the values were obtained:
human MASP-1 = molecular target: T1, human MASP-1 (human, UniProt P48740 20-699); assay: cell-based or functional assay
T1 sequence: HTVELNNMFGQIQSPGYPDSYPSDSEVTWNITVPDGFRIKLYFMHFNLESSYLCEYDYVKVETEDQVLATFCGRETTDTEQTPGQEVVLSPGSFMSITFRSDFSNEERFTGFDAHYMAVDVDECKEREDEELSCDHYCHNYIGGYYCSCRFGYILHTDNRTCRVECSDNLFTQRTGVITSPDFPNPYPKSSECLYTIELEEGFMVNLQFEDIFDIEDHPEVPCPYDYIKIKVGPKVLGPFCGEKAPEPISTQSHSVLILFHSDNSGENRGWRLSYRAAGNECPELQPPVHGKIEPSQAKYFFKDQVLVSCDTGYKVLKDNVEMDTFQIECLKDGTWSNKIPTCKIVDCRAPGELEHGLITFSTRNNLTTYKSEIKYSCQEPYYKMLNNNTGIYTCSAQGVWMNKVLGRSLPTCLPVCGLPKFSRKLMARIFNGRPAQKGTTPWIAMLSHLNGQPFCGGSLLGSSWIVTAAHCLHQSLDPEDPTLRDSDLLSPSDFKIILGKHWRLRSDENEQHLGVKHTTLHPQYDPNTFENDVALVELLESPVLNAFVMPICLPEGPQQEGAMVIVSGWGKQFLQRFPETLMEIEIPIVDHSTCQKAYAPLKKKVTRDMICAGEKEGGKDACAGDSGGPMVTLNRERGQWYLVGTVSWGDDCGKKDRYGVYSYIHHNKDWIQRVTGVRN

human MASP-2 = human MASP-2 (human, UniProt O00187 16-686); assay: cell-based or functional assay
Sequence of human MASP-2 (O00187 16-686): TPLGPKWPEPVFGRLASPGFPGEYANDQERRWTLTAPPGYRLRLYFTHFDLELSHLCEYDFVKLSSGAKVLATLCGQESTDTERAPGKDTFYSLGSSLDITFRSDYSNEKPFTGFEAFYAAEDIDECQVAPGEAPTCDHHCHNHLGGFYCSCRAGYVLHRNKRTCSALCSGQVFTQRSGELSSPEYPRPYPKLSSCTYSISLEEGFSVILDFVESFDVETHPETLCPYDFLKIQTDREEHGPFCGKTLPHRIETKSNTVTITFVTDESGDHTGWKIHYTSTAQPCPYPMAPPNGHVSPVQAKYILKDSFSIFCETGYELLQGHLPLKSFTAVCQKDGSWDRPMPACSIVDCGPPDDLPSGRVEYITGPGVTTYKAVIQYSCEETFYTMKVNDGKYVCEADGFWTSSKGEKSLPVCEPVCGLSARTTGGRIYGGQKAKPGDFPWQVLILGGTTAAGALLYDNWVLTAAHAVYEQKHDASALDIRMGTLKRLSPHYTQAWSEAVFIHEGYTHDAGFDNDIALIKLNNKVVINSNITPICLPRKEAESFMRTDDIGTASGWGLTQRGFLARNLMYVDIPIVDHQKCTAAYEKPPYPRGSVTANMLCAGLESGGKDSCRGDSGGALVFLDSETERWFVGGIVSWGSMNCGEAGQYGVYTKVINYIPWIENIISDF

Binder	IC50, C3b deposition from 1% normal human serum on mannan-coated ELISA wells (human MASP-1) [nM]	IC50, C3b deposition from 1% normal human serum on mannan-coated ELISA wells (human MASP-2) [nM]
B1	~27	–
B2	–	~300

Changes are numbered by the printed parent chain.
